Experimental data from PubChem BioAssay AID1508624 (National Center for Advancing Translational Sciences (NCATS), 2021).
Out of some 48,000 compounds screened, about 120 (0.25%) were called active. Inconclusive results (about 4%) are left out. Calls follow the shape of the dose curve; as a rule, active = well fitted activation curve with a large enough effect; inconclusive = small, poorly fitted or top-dose-only effect, or another doubt; inactive = no such curve, though single readings can be large or run the other way. Some of the results follow.

Test: Primary qHTS for Identification of Small Molecule Activators of Huntingtin-Antisense Promoter Activity; also: nearly all actives have a fitted effect of over 55% in size
Conditions: HEK293 HTT-AS promoter firefly luciferase reporter, 24 h; series mostly up to 57.5 µM; activity change, positive = activation: at the top concentration
Method in brief: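 HEK293 Fluc reporter, 2,500 cells/well, 24 h pre-culture; cpds up to 57.5 uM final, 24 h 37 degrees C; Dual-Glo, 10 min RT; normalized vehicle = 0%, zero RLU = -100%.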

Activity change, positive = activation, inactive:
COCC(=O)O[C@]1(CCN(C)CCCc2nc3ccccc3[nH]2)CCc2cc(F)ccc2[C@@H]1C(C)C -16.3%, CCCOc1ccc(C(=O)Nc2sc3c(c2C(=O)OCC)CCCCC3)cc1 -5.69%, O=C1CC(c2ccc(F)cc2)c2c(n3c(nc4ccccc43)[nH]c2=O)N1 (stereo not given) -13.2%, O=C(O)CCCCC1CCSS1 (stereo not given) -3.03%, CCc1ccc(CNC(=O)C2CCN(C(=O)c3ccc(-n4ccc5ccccc54)s3)CC2)cc1 -15.3%, Cc1ccccc1CS(=O)(=O)c1ncc(Cl)c(C(=O)Nc2nnc(C(C)C)s2)n1 -95.4%, Cc1oc(-c2cccc(Br)c2)nc1CSc1nc2ncccc2[nH]1 -18.9%, CC(C)c1ccc(-c2noc(SCC(=O)N(C)c3ccc(F)cc3)n2)cc1 -56.9%, CCOC(=O)c1cc(OC(=O)c2cccc(F)c2)n(-c2ccccc2)n1 -23.3%, CC(=O)N1CCCc2ccc(NC(=O)c3ccc(C(F)(F)F)cc3)cc21 -51%, Cc1ccccc1-c1noc(-c2ccc(N3CCCC3)c([N+](=O)[O-])c2)n1 -76.8%, CCOc1ccc(N(C(=O)c2ccc(OC)cc2)S(=O)(=O)c2ccc3c(c2)n(C)c(=O)n3C)cc1 -11.1%, O=C(NCc1cccnc1)C1CCN(Cc2cc3ccccc3n2Cc2ccccc2)CC1 -14.8%, CCC(=O)OC1=CN(Cc2ccccc2)S(=O)(=O)c2ccccc21 -7.49%, CC(C)c1ccc(NC(=O)CN2C=NS(=O)(=O)c3ccccc32)cc1 -0.601%, CCC(=O)C1=C(c2ccc(F)cc2)N(C(=O)CC)n2c(nnc2C2CCCCC2)S1 -7.42%, Cc1cc(C)cc(NC(=O)CSc2nnc(CNC(=O)c3c(F)cccc3Cl)o2)c1 -4.88%, CN(C)c1ccc2cc(C(=O)N[C@@H](CCCN=C(N)CCl)C(=O)NCc3ccccc3)ccc2c1 -9.15%, CCN(CC)S(=O)(=O)c1ccc2c(c1)N(CC(=O)Nc1c(C)cc(C)cc1C)C(=O)CS2 -13.4%, COC(=O)c1cc2oc(C)cc2n1Cc1ccc(C)cc1 24.3%, O=C(CCNS(=O)(=O)c1ccc(Br)s1)Nc1ccc(Br)cc1 -8.89%, Cc1ccc(CNCc2ccc3c(c2)n(C)c(=O)n3C)cc1 -6.53%, c1ccc(Nc2c(-c3ccccc3)nc3ncccn23)cc1 -21.5%, COc1ccc2c(c1)c(=O)c(S(=O)(=O)c1ccc(F)cc1)cn2CC(=O)Nc1ccc(C)cc1C -12.9%, CCN1C(=O)c2ccccc2Sc2ccc(NC(=O)Cc3ccc(OC)c(OC)c3)cc21 -17.2%, COc1ccc(CN(C(=O)Nc2cc(C)ccc2C)C2CCN(C(C)=O)CC2)cc1 -18.5%, COc1cc(NS(=O)(=O)c2ccc(NC(=O)COc3ccc(Cl)cc3Cl)cc2)nc(OC)n1 0.784%, CCOc1cccc(CC(=O)NCc2ccc3c(c2)CCN3C(=O)c2cccc(C)c2)c1OCC -51.7%, CCOc1ccccc1N(CC)C(=O)Cn1ncc2c1-c1ccccc1OC2 -38%, CCOc1ccc(NC(=O)CSc2nc(-c3ccccc3)c3cc(OCC)ccc3n2)cc1 -6.67%, COc1ccc(CNC(=O)c2cnc3sc4cc(OC)ccc4n3c2=O)cc1 -5.76%, O=C(NCc1ccccc1Cl)C(=O)NCC(c1ccc2c(c1)OCO2)N1CCOCC1 (stereo not given) -17.1%, CCC(CC)C(=O)N1CCc2cc(OC)c(OC)cc2C1COc1ccc2c(C)cc(=O)oc2c1 (stereo not given) -6.75%, O=C(c1cc(S(=O)(=O)N2CCCC2)c[nH]1)N1CCN(c2cccc(Cl)c2)CC1 -14.7%, O=C(NCc1ccccc1Cl)c1cc(-c2ccccc2)n[nH]1 15.2%, COCCn1c(CCC(=O)Nc2ccc(OC)c(OC)c2)nc2cccnc21 3.16%, O=C(Cn1c2ncccc2c(=O)n1-c1ccccc1)NCc1ccccc1 -10.7%, Cc1nc(-c2ccccc2)sc1-c1ccc(SCC(=O)Nc2ccccc2)nn1 1.56%, CC(C)NCC(O)c1cc(O)cc(O)c1 (stereo not given) 2.08%, Cc1ccc(NC(=O)c2ccc(F)c(S(=O)(=O)NCCc3ccccc3)c2)cc1F -39.2%, Cc1oc(-c2cccc(Br)c2)nc1CN1CCC(C(=O)NCc2ccccc2)CC1 -3.03%, COc1cccc(C2C(C(N)=O)=C(C)Nc3nc(CCCO)nn32)c1 (stereo not given) -6.74%, COc1cccc(CNC(=O)Cc2c(C)c3cc4c(C)coc4cc3oc2=O)c1 -10.3%, Cc1cc(C)cc(NC(=O)CSc2nccn2C2CCCC2)c1 12.7%, COc1ccc(-c2nc(CSCC(=O)NCCc3ccc(OC)c(OC)c3)c(C)o2)cc1 -38.3%, Cc1sc(NC(=O)C2c3ccccc3Oc3ccccc32)c(C(=O)OC(C)C)c1C -12.7%, Cc1ccc(S(=O)(=O)c2nnn3c2nc(N(C)Cc2ccccc2)c2cc(Cl)ccc23)cc1C -19.8%, CC(C)NC(=O)C1=CC(c2ccc3c(c2)OCO3)=NS(=O)(=O)N1C -9.14%, COc1ccccc1CNC(=O)c1cc2cccc3c2n1CCS3 -22.7%, CCCSc1ncc(Cl)c(C(=O)NCc2ccc(C)cc2)n1 -27.1%, COc1ccc(CNC(=O)CCS(=O)(=O)c2cc3c4c(c2)CCN4C(=O)CC3)cc1OC -3.19%, COc1ccc(C2C(C(=O)Nc3cccnc3)=C(C)Nc3nc(-c4ccc(OC)c(OC)c4)nn32)cc1 (stereo not given) -22.3%, CCOC(=O)c1c(C)[nH]c(CCC(=O)NCc2cc(Br)ccc2OC)c1C -23.9%, Cc1c(C(=O)N2CCCC2)oc2c1-c1nn(CC(=O)NCc3ccccc3F)cc1CC2 -29.9%, CCN(CC)c1cc(NC2CCCCC2)c2c3c(onc13)-c1ccccc1C2=O -7.2%, CC1CCN(S(=O)(=O)c2ccc3c(c2)N(CC(=O)N(C)Cc2ccccc2)C(=O)CO3)CC1 -13.5%, Cn1cnc(S(=O)(=O)N2CCC(C(=O)Nc3ccc(OC(F)(F)F)cc3)CC2)c1 -29.8%, COc1cccc(CNC(=O)C2CCCN(c3nn4cc(-c5ccc(C)cc5)nc4s3)C2)c1 (stereo not given) -36.6%, O=c1c2sc3ccccc3c2n(Cc2cccc(Cl)c2)c(=O)n1Cc1ccc(F)cc1 -25.9%, Cc1cc(C)c(NC(=O)Cn2nnc3sc4c(c3c2=O)CCC(C(C)(C)C)C4)c(C)c1 (stereo not given) -7.68%, O=C(c1ccc2c(c1)N(Cc1ccccc1)C(=O)c1ccccc1S2(=O)=O)N1CCC(Cc2ccccc2)CC1 -0.358%, CCCCN1C(C(=O)c2ccccc2)=C(OC(=O)CC)c2ccccc2S1(=O)=O -49%, COc1cc(C2c3c(-c4ccccc4O)n[nH]c3C(=O)N2Cc2ccncc2)cc(OC)c1OC (stereo not given) -2.56%, Cc1nnc(N2CCCC(C(=O)Nc3cc(F)ccc3F)C2)c2nn(-c3ccccc3)c(C)c12 (stereo not given) -14.1%, CCCn1cnc2c1c(=O)n(CCCCC(C)=O)c(=O)n2C 0.0383%, CC1CCN(c2nc3ccccc3nc2SCC(=O)Nc2ccccc2C(C)C)CC1 -16.2%, CCCN1CCN(c2ncnc3sc(C(=O)Nc4ccc(OC(F)(F)F)cc4)c(C)c23)CC1 0.267%, CCCCN(CC)CCCNC(=O)c1ccc2c(c1)N(Cc1ccc(C)cc1)C(=O)c1ccccc1S2 -54.5%, COc1cc(NC(=O)COCc2cc(-c3ccc4c(c3)OCO4)on2)c(OC)cc1Cl -7.66%, CC(=O)c1ccc(NC(=O)Cn2c(=O)nc(-c3ccccc3)c3ccccc32)cc1 -1.47%, O=C(CS(=O)(=O)c1cccc2nsnc12)N1CCN(c2ccc(F)cc2)CC1 -12%, CCOc1ccc(C(=O)c2cn(CC(=O)Nc3ccc(C)c(Cl)c3)c3ccc(OCC)cc3c2=O)cc1 -9.3%, CCCCC(=O)OCc1cc(=O)n2nc(C3CC3)sc2n1 -2.25%, O=C(NC1(C(F)(F)F)N=C(c2ccccc2)N(Cc2ccccc2)C1=O)c1ccc(F)cc1 (stereo not given) -23.1%, CCOc1ccc(CCNC(=O)c2cc3n(n2)CCCN(Cc2ccc(C)cc2)C3=O)cc1OCC -21.3%, Cc1cc(-c2ccc(C)c(S(=O)(=O)Nc3ccc(C)c(N(C)C)c3)c2)on1 -33.5%, COc1ccc(C)cc1NS(=O)(=O)c1ccc2c(c1)CCCN2C(C)=O -16.5%, COc1ccc(-c2nc(SCC(=O)NCC3CCCO3)c(-c3ccc(C)cc3)[nH]2)cc1OC (stereo not given) -3.98%, COc1ccc(NC(=O)N2CCN(Cc3nc4ccc(C)cc4o3)CC2)cc1OC -12.5%, CCCCNC(=O)CN1CCN(c2ccc(NC(=O)c3ccc(OC)cc3)cc2C(=O)O)CC1 -5.57%, Cc1ccc(N(C)S(=O)(=O)c2nnc(NC(=O)c3ccco3)s2)cc1 -19.7%, COc1ccc(-c2c(C#N)c(SCC(=O)Nc3ccc(C)c(C)c3)nc(C)c2C(=O)Nc2ccccc2)cc1OC 0%, O=C(O)CN(CCN(CC(=O)O)CC(=O)O)CCN(CC(=O)O)CC(=O)O 0.615% [at 25.1 µM, percent change from vehicle, -100% = no light], COc1ccc(CNC(=O)C2CCN(C(=O)N3CCOc4ccc(C)cc43)CC2)cc1 -23.3%, CC1CCCN(C(=O)c2ccc(CSc3nc4ccncc4n3Cc3ccccc3)cc2)C1 (stereo not given) -9.42%, O=C(NCc1ccc(Cl)cc1)c1cc2cccc3c2n1CCS3 -23.4%, CCc1cc(C(=O)N2CCN(c3ccccc3)CC2)no1 15.6% [at 11.5 µM, percent change from vehicle, -100% = no light], Cc1cccc(-n2c(=O)c3c(c4cc(C)ccc4n3C)n(CC(=O)Nc3ccc(C)c(C)c3)c2=O)c1 -16.2%, CC(C)(C)NC(=O)Cn1cc(S(=O)(=O)Cc2ccccc2Cl)c2ccccc21 -2.5%, COc1ccccc1N1CCN(c2c3c(nc4nncn24)CCC3)CC1 -9.69%, Cc1cccc(NC(=O)Cn2c(=O)n(Cc3nc(-c4ccccc4)no3)c(=O)c3ccccc32)c1 -31%, COC(=O)c1sccc1S(=O)(=O)N(CC(=O)NCc1ccc(F)cc1)c1ccccc1 -19.7%, Cc1ccc(CNC(=O)C2CCCN(c3nc4ccccc4n4cccc34)C2)cc1 (stereo not given) -24.2%, COc1ccc(C(C)NC(=O)CN(c2cc(OC)ccc2OC)S(=O)(=O)c2ccccc2)cc1 (stereo not given) 10.4%, CC1CCN(CCCNC(=O)CN2C(=O)CSc3ccc(S(=O)(=O)N4CCCCC4)cc32)CC1 -9.91%
